# Data published in the supplement of paper PMC10126150.
# Values marked as one replicate rest on one cluster of the flow cell; about a third of the high ones do not repeat.
# System: ATP
# Experiment: switch fluorescence ratio, 500 uM ATP over buffer (Cy3 cluster intensity, sum of 5 cycles each) (fold (ratio)); higher = stronger signal-on switching upon ATP binding; sequences stand for … in TCGTCGGCAGCGTCAGATGTGTATAAGAGACAGTTTTTTTTTTTTTTTTTTTTTTTTT…TC
# Conditions: aptamer strand: ATP DNA aptamer (quencher-CACCTGGGGGAGTATTGCGGAGGAAGG + anchor), 100 nM annealed; ATP concentration: 500 uM; one replicate
# In short: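 Clusters carrying Cy3-labelled switching strands on a modified Illumina MiSeq flow-cell were annealed to 100 nM quencher-labelled ATP aptamer and imaged in selection buffer. They were imaged again after 15 min with 500 uM ATP at 22 °C, over five buffer/ATP cycles with NaOH stripping and re-annealing in between. For each cluster, the fluorescence ratio is the summed Cy3 intensity of the target cycles divided by that of the buffer cycles, averaged per switch-domain sequence. Clusters outside 100-1000 RFU were left out.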
# 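Further: ATP exposure 15 min at 22 °C before imaging.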
row,Sequence,switch fluorescence ratio
1,AAGTAGGAGG,1.02
2,TGGAACCGTC,1.16
3,GTATGGATAG,0.994
4,GTAATTGGT,0.976
5,TGTGGTAGAT,1.01
6,AACAAATGTA,1.02
7,GCTAAATGGG,1.01
8,GAAATCGCCC,1.05
9,TAATTTCGGC,1.04
10,GATGTAAAGA,0.968
11,TTAAAGTTT,1.04
12,TCCCTGGTTT,1.09
13,TAGTGTATG,1.01
14,ATCTTCCGG,1.28
15,CGGGGTGCAA,1.31
16,TTAGTCTTCA,0.979
17,GCCGGACGAC,1.17
18,GGTATACGTG,0.947
19,AATAGGCTTA,0.993
20,GTAGGTGTTC,0.993
21,AATGCGATAA,1.31
22,GGGAAGAGCG,1.04
23,GAGAGGCGCG,1.07
24,TATCGCGGC,1.77
25,AGAAGAGCGG,0.951
26,GAGCGGCCAC,1.02

row,Sequence,switch fluorescence ratio
1,ACGACCAATA,5.61
2,AATCATACGT,1.02
3,TTGGGGTCG,1
4,TTTTTGTACA,1.02
5,AGGTAGGGTC,0.984
6,CGAATAGTG,0.992
7,AACCAGGACA,0.993
8,AGGCCGGG,1.04
9,TACGATCAT,1.1
10,TAACGTAACG,1.07
11,GGGCCGGTTC,1.01
12,TATTTATAA,0.982
13,TTCTTCACAA,1.32
14,TGGGTGCGGA,0.989
15,TGGGCCCAAC,1.02
16,TCCAGAGAAG,1
17,GTCTAAGCTG,0.979
18,GTAAAACGAT,0.986
19,ATTTTGGATA,0.971
20,TCGGCCCTGT,0.992
21,ATAATCTGAT,0.957
22,ACGTATTTG,1.1
23,AGTGAATGGT,1.02
24,CTATGTGAC,1.04
25,GTTTCTGTT,0.966
26,CCTCTGATTG,1.26

row,Sequence,switch fluorescence ratio
1,GTTGGTCCGA,1
2,TTAGACCTGT,1.01
3,CTGGTCCGTT,1.05
4,ATTCCATGTC,1.08
5,GGCCTTGTTT,0.967
6,ACCTTTGAAG,1.06
7,GACTGAGA,0.982
8,GGCCGCGCCG,0.998
9,CTTGTTGTTG,1.04
10,AGCTGTGTCC,0.989
11,TCGTCTCCA,1
12,TGGGATGTCT,1.04
13,ACGCTGCAAT,3.52
14,CAGTTGGGCG,0.908
15,GGCCAATAGT,1.02
16,GTCCTGGCTT,0.994
17,GCTCATAGAG,1.05
18,CCTTTTTCTG,1.01
19,TAAGAGATCG,0.922
20,GCGTGTAACG,0.99
21,TTGATGCTGC,1.06
22,ACGTCTGCTA,1.08
23,ATAAATCAAA,1.02
24,CGAGGGTTGA,0.957
25,TGCTCTGGCT,1.04
26,ACCTTAAAGT,1.08

row,Sequence,switch fluorescence ratio
1,GATAAGGGCC,1
2,GGAGGATTTG,0.969
3,GGCCATATAT,0.989
4,ATTATTTGCG,1.04
5,TGCACTACGC,1.11
6,TACGGGCGA,1.03
7,TTGTGTTAA,0.948
8,GCGGGACGAG,0.991
9,TTCTGATTTT,0.991
10,ATTCGTTGGG,0.993
11,ACGATTCGTG,0.98
12,AACGACTTA,1.03
13,GCTCTTACTC,1.34
14,TTCAGTGTTC,1.01
15,AGTTGGTAGA,1.03
16,GTCCCTATTG,0.981
17,TAATGCAGAC,1.24
18,AGATTCTCG,0.981
19,ATGGGGGA,1.03
20,TTATATTTCC,1.04
21,GTTACGGGAT,1.02
22,CGCTGACGTG,0.983
23,TGGTCAGTCT,0.976
24,TAGGATATTC,1.03
25,GTTTCGCCGG,1
26,AGCACATCAC,1.81

row,Sequence,switch fluorescence ratio
1,TGACTTAGGT,1.06
2,TCCTGCATT,1.21
3,CGAAGTCGGT,1.02
4,TTCTTTTGAT,0.958
5,CACTAATGCT,1.01
6,TGGAGGAGTT,1.05
7,AAAGTGAACA,0.982
8,AACGCGTCA,0.994
9,TTCACCGGTA,0.964
10,TATCGTTGCC,0.989
11,TGATGAGAAA,0.986
12,GGACCCCAGC,1.21
13,TGATTTGCTG,0.946
14,GATTATAAAG,1.04
15,CGTGCCAAAC,1.22
16,GTTAGGATAG,0.982
17,CAGTTACTAT,1.04
18,TCGGGAAATC,1.05
19,AAAGAGAGCA,0.955
20,GCCATTGGCG,1.01
21,TAACTGTTCG,0.987
22,CGAATGATGG,0.974
23,GAAGGTCCAT,1.01
24,GGTCAACAAC,1.05
25,ATGAACACAC,1.25
26,TTAATAGACG,1.03

row,Sequence,switch fluorescence ratio
1,TACGCGTGAT,0.957
2,TAGGAAT,1.06
3,AATGTGTACG,1.01
4,CGTCAGCATA,4.67
5,CGCGGGCTGT,0.994
6,ATTTCCCCGG,1.71
7,AGCCTGTCCG,1.03
8,TACGCCTTCT,1.05
9,GCAGCGACCG,1.15
10,GCGTTGGGTT,0.988
11,AGGATAGT,1.03
12,TTGTAGGGCG,1.04
13,ACTCCTTCCT,3.17
14,CATACAGCCC,1.08
15,GGTCCCCTGC,1.01
16,GACGACCTGA,1.03
17,ATTCGTCTTT,0.957
18,ATCGGCGGAT,0.964
19,TTTGCTTCAT,0.997
20,GGAGGGGTAC,1.13
21,TTTATGTGTA,1.02
22,TGCCTATTCC,1.1
23,ACCTCCTATT,1.02
24,AATAATGGTC,1.06
25,TTTGACCGGC,1.05
26,GGCAACCCGG,1.02

row,Sequence,switch fluorescence ratio
1,ATGATATGGA,1.08
2,TGTAAGCAGA,1.08
3,GCACGATATT,1.09
4,GCTGCGGCAT,0.972
5,CATGAGTTTT,0.94
6,TTTTACGAAA,1.78
7,TAGTGACTTT,0.986
8,GGCAGGTGAC,1.28
9,TATTCACGGC,1.05
10,AGAGGC,1.09
11,TCTATTTGTT,0.965
12,GCAGAACCGT,1.05
13,CTTCTGCGGC,1.08
14,AGACTGCAGG,1.04
15,AGTGACATGT,1.02
16,CATAAGTTCG,1.02
17,GCGTCGGGCG,1.1
18,CGAATCTGTT,0.987
19,AATTGTGACT,1.03
20,CACTGCAGAG,1.03
21,ATTGTATTAG,0.994
22,ATAATTGTAT,1.13
23,ATTATACAGA,1.03
24,AGGAGCGATG,1.05
25,TATTCATTA,1.05
26,GACCCTATGT,1.03

row,Sequence,switch fluorescence ratio
1,TGGAGGGGTC,1.02
2,GGAGGCCTAG,0.985
3,AGTGTAAA,0.967
4,TGAAGGGAA,1.02
5,ACGATGACTC,1.36
6,CGCGATTATA,1.02
7,TTAGACCATA,0.974
8,AACGGGATCG,1.03
9,CTGACAGGGA,0.988
10,GATAGTACGT,1.03
11,GGCGTCCCCA,0.969
12,GCTATTCCCG,1.05
13,CAATGTTTCT,0.953
14,GGCTGTCATT,0.994
15,CGTTATTACA,1.02
16,CCGTAGATCT,1.17
17,ATGGCGTCGA,0.947
18,GCGAATGGTA,0.996
19,TCAGTTTATC,0.99
